# Source: the supplement of paper PMC9174493
# Some of the results follow. Single values of this set are uncertain. Values with irradiation are relative to irradiated vehicle.
# Test system: A549-Dual
# Experiment: ISRE reporter (Lucia luciferase) activity, viability-corrected, relative to vehicle (fold change vs vehicle); higher = more activation of STING-IRF / NF-kB immune response reporter
# Settings: 10 µM; irradiation: 8 Gy/4 fr
row,SMILES,ISRE reporter
1,C=CC1(C)CC(OC(=O)CSCCN(CC)CC)C2(C)C(C)CCC3(CCC(=O)C32)C(C)C1O (stereo not given) [Tiamulin],0.881
2,COC(=O)OCOc1c2n(ccc1=O)N(C1c3ccccc3SCc3c1ccc(F)c3F)C1COCCN1C2=O (stereo not given) [Baloxavir marboxil],1.17
3,COc1cc(CNC(=O)CCCCCCC(C)C)ccc1O [Dihydrocapsaicin],0.548
4,CCCCC(=O)N(Cc1ccc(-c2ccccc2-c2nnn[nH]2)cc1)C(C(=O)O)C(C)C.CCOC(=O)C(C)CC(Cc1ccc(-c2ccccc2)cc1)NC(=O)CCC(=O)O.[Na+].[Na+].[Na+] (stereo not given) [Sacubitril/valsartan (LCZ696)],0.48
5,CCCCC(=O)OCC(=O)C1C(C)CC2C3CC(F)C4=CC(=O)C=CC4(C)C3(F)C(O)CC21C (stereo not given) [Diflucortolone valerate],0.0458

# Same assay, conditions: 10 µM; irradiation: none
row,SMILES,ISRE reporter
1,CC(C)C(=O)c1c(C(C)C)nn2ccccc12 [Ibudilast],0.817
2,CCN(CC)CCNC(=O)c1cc(Cl)c(N)cc1OC.Cl [Metoclopramide HCl],1.02
3,CC1(C)SC2C(NC(=O)C(C(=O)[O-])c3ccccc3)C(=O)N2C1C(=O)[O-].[Na+].[Na+] (stereo not given) [Carbenicillin disodium],0.934
4,Cl.O=S(=O)(c1cccc2cnccc12)N1CCCNCC1 [Fasudil (HA-1077) HCl],0.678
5,CC1(C(=O)O)CCC2(C)CCC3(C)C(=CC(=O)C4C5(C)CCC(O)C(C)(C)C5CCC43C)C2C1 (stereo not given) [Enoxolone],0.693
6,O=C([O][Ca][O]C(=O)C(O)C(O)C(O)C(O)C(O)CO)C(O)C(O)C(O)C(O)C(O)CO (stereo not given) [Calcium Gluceptate],0.931
7,C=C1CC/C=C(\C)CCC2C1CC2(C)C (stereo not drawn) [β-Caryophyllene],0.853
8,CCC(c1ccccc1)c1c(O)c2ccccc2oc1=O (stereo not given) [Phenprocoumon],0.393
9,O=C1CCc2ccc(OCCCCN3CCN(c4cccc(Cl)c4Cl)CC3)cc2N1 [Aripiprazole],1.11
10,CCC1(C)CC(=O)NC1=O (stereo not given) [Ethosuximide],0.708
11,CC(=O)Oc1c(C)c(C)c2c(c1C)CCC(C)(CCCC(C)CCCC(C)CCCC(C)C)O2 (stereo not given) [Vitamin E Acetate],0.636
12,CCCCN1CCCCC1C(=O)Nc1c(C)cccc1C.Cl (stereo not given) [Bupivacaine HCl],0.913
13,COc1ccnc(CS(=O)c2nc3cc(-n4cccc4)ccc3[n]2[Na])c1C (stereo not given) [Ilaprazole sodium],1.3
14,CSc1ccc2c(c1)N(CCC1CCCCN1C)c1ccccc1S2.Cl (stereo not given) [Thioridazine hydrochloride],1.62
15,CCCCCC(C)N (stereo not given) [2-Aminoheptane],0.838
16,CCCCOC(=O)c1ccc(O)cc1 [Butylparaben],0.745
17,CCCCCCCCCCCCCCC(=O)O [Pentadecanoic acid],0.803
18,CC(CCC(=O)O)C1CCC2C3CCC4CC(O)CCC4(C)C3CC(O)C12C (stereo not given) [Deoxycholic acid],0.709
19,OCCN1CCN(CCCN2c3ccccc3Sc3ccc(Cl)cc32)CC1 [Perphenazine],0.914
20,Cl.N=C(N)c1ccccc1 [Benzamidine HCl],0.524

row,SMILES,ISRE reporter
1,O.O.O.O.[Li][O]C(=O)CC(O)(CC(=O)[O][Li])C(=O)[O][Li] [Citric acid trilithium salt tetrahydrate],0.673
2,C1CNCCN1 [Piperazine],0.801
3,CC1(Cn2ccnn2)C(C(=O)O)N2C(=O)CC2S1(=O)=O (stereo not given) [Tazobactam],0.748
4,CC1=C(/C=C/C(C)=C/C=C/C(C)=C/C=C/C=C(C)/C=C/C=C(C)/C=C/C2=C(C)CCCC2(C)C)C(C)(C)CCC1 [Beta Carotene],0.617
5,CCN(CC)CCOc1ccc2c(c1)C(=O)c1cc(OCCN(CC)CC)ccc1-2.Cl.Cl [Tilorone dihydrochloride],6.15
6,CCCCCCCN(CC)CCCC(O)c1ccc(NS(C)(=O)=O)cc1.CCCCCCCN(CC)CCCC(O)c1ccc(NS(C)(=O)=O)cc1.O=C(O)/C=C/C(=O)O (stereo not given) [Ibutilide Fumarate],1.31
7,CC(C)(C)NC(=O)NC(C(=O)N1CC2C(C1C(=O)NC(CC1CCC1)C(=O)C(N)=O)C2(C)C)C(C)(C)C (stereo not given) [Boceprevir],1.1
8,COc1ccc(NS(=O)(=O)c2ccc(N)cc2)nn1 [Sulfamethoxypyridazine],0.828
9,C[C@H](N)C(=O)O [L-Alanine],1.08
10,CN(Cc1ccc(C(C)(C)C)cc1)Cc1cccc2ccccc12 [Butenafine],0.578
11,COCCCOc1ccnc(CS(=O)c2nc3ccccc3[n]2[Na])c1C (stereo not given) [Rebeprazole sodium],0.61
12,CN(C)CCOC(C)(c1ccccc1)c1ccccn1.O=C(O)CCC(=O)O (stereo not given) [Doxylamine Succinate],0.744
13,NS(=O)(=O)Cc1noc2ccccc12 [Zonisamide],0.62
14,O=C(O)CSc1nnc(Br)n1-c1ccc(C2CC2)c2ccccc12 [Lesinurad],0.701
15,Oc1cc(O)c2c(c1)OC(c1ccc(O)c(O)c1)C(OC1(c3ccc(O)c(O)c3)Oc3cc(O)cc(O)c3C(O)C1O)C2 (stereo not given) [Proanthocyanidins],0.819
16,C=CC1(C)CC(OC(=O)CSCCN(CC)CC)C2(C)C(C)CCC3(CCC(=O)C32)C(C)C1O (stereo not given) [Tiamulin],1.17
17,COC(=O)OCOc1c2n(ccc1=O)N(C1c3ccccc3SCc3c1ccc(F)c3F)C1COCCN1C2=O (stereo not given) [Baloxavir marboxil],3.49
18,COc1cc(CNC(=O)CCCCCCC(C)C)ccc1O [Dihydrocapsaicin],0.574
19,CCCCC(=O)N(Cc1ccc(-c2ccccc2-c2nnn[nH]2)cc1)C(C(=O)O)C(C)C.CCOC(=O)C(C)CC(Cc1ccc(-c2ccccc2)cc1)NC(=O)CCC(=O)O.[Na+].[Na+].[Na+] (stereo not given) [Sacubitril/valsartan (LCZ696)],0.385
20,CCCCC(=O)OCC(=O)C1C(C)CC2C3CC(F)C4=CC(=O)C=CC4(C)C3(F)C(O)CC21C (stereo not given) [Diflucortolone valerate],0.141
